Out of some 52,000 compounds screened, about 4,300 (8.3%) were called active. Cut-off read from the data, not from the text of the source: active = survival mostly below about 52% (no sharp cut-off); inactive = mostly above about 56%. Some of the results follow.

The test system of the assay is DeltatarO mutant. As to the kind of experiment: S. aureus survival, RN4220 and DeltatarO strains – OD600, teichoic acid synthesis inhibitors, primary screen (AID 463173). The settings on record: S. aureus RN4220 wild type/DeltatarO growth, OD600, 18 h, active compounds read low, screened at 18.75 µg/mL (by protocol).
In the case of `Cc1ccc(C)c(Nc2nn3c(=O)c4ccc(C(=O)NCCc5ccccc5)cc4nc3s2)c1`, the survival is inactive: 82%.

`CCc1ccccc1N(C)C(=O)c1cnc(N2CCOCC2)c2ccccc12`: the survival was inactive: 91%. Regarding `Cc1cccc(C(=O)N2CCc3cc(CNC(=O)Cc4ccc(F)cc4)ccc32)c1`, the survival is inactive: 72%.

In the case of `Cc1cc(Br)ccc1NC(=O)c1cn(C2CCCC2)c(=O)c2c1c1ccccc1n2C`, the survival is inactive: 73%. Then `Cc1ccc(Cc2nc3ccccc3nc2SCC(=O)NCc2ccc(F)cc2)cc1`, with inactive: 74%; and `COc1ccc(CCNc2ncnc3c2c(-c2ccccc2)cn3-c2ccc(F)cc2)cc1OC`, with inactive: 85%; and `CCNc1nc(Cl)nc(N(C)C#N)n1`, with inactive: 96%.

On to `CCC(=O)C1=C(c2cccc([N+](=O)[O-])c2)N(C(=O)CC)n2c(nnc2-c2ccccc2)S1`, for which the survival was active: 8%.

For the molecule `Cc1ccc(-n2ncc3c(N4CCN(CCO)CC4)ncnc32)cc1Cl`, the survival was inactive: 101%.

Turning to `CCCCNc1nc(Oc2ccc(OCC(N)=O)nn2)nc(N2CCOCC2)n1`, the survival is inactive: 108%. The figure for `CCOc1cc(C2c3c(oc4ccc(F)cc4c3=O)C(=O)N2Cc2ccco2)ccc1O` (stereo unspecified) is inactive: 90%. With `Cc1ccc(S(=O)(=O)c2c(F)c(F)c(S(=O)(=O)c3ccc(C)cc3)c(F)c2F)cc1`, the survival is inactive: 79%. The figure for `Cc1ccc(-n2c(SCC(=O)Nc3ccc4c(c3)OCO4)nc3c([nH]c4ccccc43)c2=O)cc1` is inactive: 128%; for `Cc1ccc(-c2cc(C(=O)NCc3cnn(C)c3)c3cc(Br)ccc3n2)cc1` it is inactive: 51%. The figure for `Cc1[nH]c2ccccc2c1/C=N\NC(=O)Cn1nnc(-c2ccccc2)n1` is inactive: 64%; for `O=C(NCCc1ccccc1)c1ccc2c(c1)CCN2S(=O)(=O)c1ccc(Br)cc1` it is inactive: 67%; for `CCOc1ccc(C(=O)Nc2nnc(S(=O)(=O)N(CC)c3ccccc3C)s2)cc1` it is active: 44%. On to `CC(=O)c1cccc(NC(=O)CCCN2C(=O)COc3ccc(C)cc32)c1`, for which the survival is inactive: 139%.

`CCC(=O)N1CCCc2cc(S(=O)(=O)N3CCC(C(=O)Nc4ccc(F)c(F)c4)CC3)ccc21`: the survival is inactive: 116%. Turning to `CCNc1nc2c(c(=O)[nH]c(=O)n2C)n1CC(O)COc1ccc(Cl)cc1Cl` (stereo unspecified), the survival was inactive: 180%. Turning to `COc1ccc(N2CC(c3nc(-c4cc(OC)c(OC)c(OC)c4)no3)CC2=O)cc1Cl` (stereo unspecified), the survival was inactive: 118%. Then `O=C(CCS(=O)(=O)c1cccs1)Nc1ccc(C(=O)Nc2cccc(Cl)c2)cc1`, with inactive: 49%.

For the molecule `Cc1ccc(C)c(NC(=O)CN2C(=O)CSc3nc(C)cc(C)c32)c1`, the survival was inactive: 103%. Regarding `COc1ccc(CNc2ccc3cc(S(=O)(=O)N4CCCCC4)ccc3n2)cc1`, the survival is inactive: 79%. As to `CC1CCN(C(=O)CN2CCSc3ccccc32)CC1`, the survival is inactive: 90%. For `CCN(CC)c1ccc(C(=O)NCCN)cc1`, the survival was inactive: 115%. `O=C(Nc1ccc(SC(F)F)cc1)c1cc(-c2cccs2)on1`: the survival was inactive: 92%. In the case of `COC(=O)c1sc2cccc(F)c2c1S(=O)(=O)N1CCN(c2ccccc2OC)CC1`, the survival was inactive: 60%. On to `COc1ccc(OC)c(NC(=O)CSc2nc(-c3ccccc3C)nc3cc(=O)[nH]n23)c1`, for which the survival was inactive: 67%. Then `Cc1ccc(CNC(=O)CN(c2ccc(C(C)C)cc2)S(=O)(=O)c2c(C)n[nH]c2C)cc1`, with active: 43%; and `COc1cccc(NC(=O)CN2CCCN(S(=O)(=O)c3ccc(Br)cc3)CC2)c1`, with inactive: 58%. In the case of `COc1ccc(Cn2ccnc2SCC(=O)Nc2ccc(C)cc2C)cc1`, the survival was inactive: 83%.

Consider `CC(C)(C)CC(=O)Nc1nnc2n1CCS2`, for which the survival is inactive: 83%. Then `CCCC(=O)NCC(c1ccc2c(c1)OCO2)N1CCOCC1` (stereo unspecified), with inactive: 92%; and `O=C(COc1ccc(Cl)cc1)Nc1ccccc1C(=O)OCc1cc(=O)n2ccsc2n1`, with inactive: 92%; and `O=C(NCCSCc1c(F)cccc1Cl)C1CCN(S(=O)(=O)Cc2ccccc2)CC1`, with inactive: 68%. The figure for `COc1ccccc1CNC(=O)CN1C(=O)CSc2c1c(C)nn2-c1ccccc1` is inactive: 101%; for `Cc1cc(C)c2c(=O)c3c(oc2c1)C(=O)N(Cc1ccc(F)cc1)C3c1cccc(O)c1` (stereo unspecified) it is active: 52%. Turning to `CCc1ccc(CSc2nc(-c3ccccc3OC)nc3c2Cc2c(CO)cnc(C)c2O3)cc1`, the survival is inactive: 90%. As to `CCCn1c(=N)c(C(=O)NCc2cccnc2)cc2c(=O)n3cc(C)ccc3nc21`, the survival was inactive: 67%. Then `O=C(c1cnc2cc(-c3ccccc3)nn2c1)c1cc([N+](=O)[O-])ccc1O`, with active: 9%. For `CC1(N2CCOCC2)CC(=O)N(c2ccccc2)O1` (stereo unspecified), the survival is active: 62%. The figure for `COc1cccc(/C=C/c2nc(C#N)c(N3CCCCC3)o2)c1` is inactive: 56%.

For the molecule `O=C(C1CCCN(S(=O)(=O)c2cccc3nonc23)C1)N1CCN(c2cccc(Cl)c2)CC1` (stereo unspecified), the survival was inactive: 48%. Then `Cc1ccccc1Cn1nc(C)c(NC(=O)c2cc(-c3ccc(F)cc3)on2)c1C`, with inactive: 72%; and `CCOc1ccccc1CNc1ncnc2c1nc1n2CCCC1`, with inactive: 88%; and `CSc1ccc(CCNC(=O)CCc2c(C)nc3c(-c4ccccc4)c(C)nn3c2C)cc1`, with inactive: 53%. Then `COC(=O)c1ccc2c(=O)n(CCCCCC(=O)NCc3ccccc3)c(=O)[nH]c2c1`, with inactive: 71%. The figure for `Cc1cccc(-n2c3c(cc(-c4nc(-c5ccc(Cl)cc5)cs4)c2=O)C(=O)CC(C)(C)C3)c1` is active: 62%; for `O=C(CN1CCSc2ccccc21)N1CCN(c2ccccc2)CC1` it is inactive: 104%; for `CCOC(=O)c1c(NC(=O)/C=C/c2ccc(OC)c(OC)c2)sc(C(C)=O)c1C` it is inactive: 118%.

For the molecule `CCc1ccc(NC(=O)c2cc(-c3cccs3)on2)cc1`, the survival is inactive: 161%.

`CC(=O)c1ccc(NS(=O)(=O)c2cc3[nH]c(=O)c(=O)[nH]c3cc2C)cc1`: the survival was inactive: 135%. Then `Cc1ccc(C)c(N2CCN(C(=O)Cn3ncc4c(=O)oc5ccc(C)cc5c43)CC2)c1`, with inactive: 78%; and `COC(=O)c1ccccc1NC(=O)CSc1nc(-c2ccccc2)cc(C(F)(F)F)n1`, with active: 25%; and `CCOC(=O)c1c(C)[nH]c(C)c1S(=O)(=O)N1CCC(C(=O)Nc2ccc(F)cc2F)CC1`, with inactive: 86%.

The record behind these values is PubChem BioAssay AID463173 (ICCB-Longwood Screening Facility, Harvard Medical School, 2010).
